Measurements from article PMC4336329 (PLoS ONE, 2015).
Among all 310,000 compounds or so, about 14,000 (4.5%) showed an effect of 50% or more. Effects have a minus sign here. This is one part of the list.

Target: human ether-à-go-go-related gene (hERG) potassium channel (human, UniProt Q12809)
Assay: primary screen, population patch clamp on CHO cells stably expressing hERG
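Also: peak tail current of the secondary pulse compared with the same well before compound.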

Chain of human ether-à-go-go-related gene (hERG) potassium channel (Q12809 whole entry, looked up): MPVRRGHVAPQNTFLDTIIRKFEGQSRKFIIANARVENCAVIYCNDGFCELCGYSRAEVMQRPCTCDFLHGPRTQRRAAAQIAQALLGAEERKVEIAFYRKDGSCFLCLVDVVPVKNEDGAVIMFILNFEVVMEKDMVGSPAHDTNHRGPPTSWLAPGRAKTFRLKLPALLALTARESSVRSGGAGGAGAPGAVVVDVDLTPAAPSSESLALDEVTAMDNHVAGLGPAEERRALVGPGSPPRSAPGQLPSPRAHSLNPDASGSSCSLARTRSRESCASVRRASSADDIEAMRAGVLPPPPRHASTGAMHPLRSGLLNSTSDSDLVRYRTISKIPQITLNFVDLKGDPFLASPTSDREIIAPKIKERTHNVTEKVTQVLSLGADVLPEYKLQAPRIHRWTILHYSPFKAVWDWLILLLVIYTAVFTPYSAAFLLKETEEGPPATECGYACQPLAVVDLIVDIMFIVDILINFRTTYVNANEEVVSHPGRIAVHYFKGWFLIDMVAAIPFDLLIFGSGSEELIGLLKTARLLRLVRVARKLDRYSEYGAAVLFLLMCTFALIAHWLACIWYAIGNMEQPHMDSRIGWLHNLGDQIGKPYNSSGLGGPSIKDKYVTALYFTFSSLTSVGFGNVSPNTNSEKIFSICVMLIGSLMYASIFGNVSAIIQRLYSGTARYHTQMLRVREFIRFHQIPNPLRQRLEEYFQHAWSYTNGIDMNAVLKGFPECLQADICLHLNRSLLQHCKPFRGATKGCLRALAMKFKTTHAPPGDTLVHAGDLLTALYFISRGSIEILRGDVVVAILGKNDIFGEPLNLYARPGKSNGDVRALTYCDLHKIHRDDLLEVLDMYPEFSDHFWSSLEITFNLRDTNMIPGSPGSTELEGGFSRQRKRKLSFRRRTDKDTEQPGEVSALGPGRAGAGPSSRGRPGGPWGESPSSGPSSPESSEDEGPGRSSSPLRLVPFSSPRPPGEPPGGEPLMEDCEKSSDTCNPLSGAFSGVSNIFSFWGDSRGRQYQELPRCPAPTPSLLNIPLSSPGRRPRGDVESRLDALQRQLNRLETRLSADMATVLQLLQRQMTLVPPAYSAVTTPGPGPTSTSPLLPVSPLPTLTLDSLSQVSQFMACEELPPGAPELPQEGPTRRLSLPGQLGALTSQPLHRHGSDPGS

**Q.** How did the “hERG current change (%, negative = inhibition) at 10uM” value turn out when O=C(Nc1cc(Cl)cc(Cl)c1)C1CCCC1 was run?
**A.** Its value is 14.6%.

**Q.** How did the “hERG current change (%, negative = inhibition) at 10uM” value turn out when Cc1ccc(C(=O)CCC(=O)N2CCN(c3ccc(F)cc3)CC2)cc1 was run?
**A.** The value was -10.1%.

**Q.** CCOC(=O)c1ccc(NC(=S)N2CCN(C)CC2)cc1 was tested. Which “hERG current change (%, negative = inhibition) at 10uM” value did it give?
**A.** The value was 12.2%.

**Q.** C=C1CCC2[C@](C)(CO)[C@H](O)CC[C@@]2(C)[C@@H]1/C=C/C1=CCOC1=O (some centres unmarked) was tested. Which “hERG current change (%, negative = inhibition) at 10uM” value did it give?
**A.** Its value is 7.38%.

**Q.** Cn1c(CNC(=O)CNS(=O)(=O)c2ccc(Cl)cc2)cc(=O)n(C)c1=O was tested. Which “hERG current change (%, negative = inhibition) at 10uM” value did it give?
**A.** The value was 24.1%.

**Q.** With CCOC(=O)CSc1n[nH]c(NC(=O)c2ccc(F)cc2)n1 as the compound, how does the “hERG current change (%, negative = inhibition) at 10uM” value read?
**A.** The value was -16.5%.

**Q.** For COc1ccc(CCN2C(=O)N(c3ccc(OC)cc3)C(=O)C2CC(=O)Nc2ccccc2)cc1 (centres unmarked), which “hERG current change (%, negative = inhibition) at 10uM” value is on record?
**A.** The value was -23.4%.

**Q.** Cc1ccccc1N(Cc1cc(=O)[nH]c2ccccc12)C(=O)CCl was tested. Which “hERG current change (%, negative = inhibition) at 10uM” value did it give?
**A.** Its value is 15.6%.

**Q.** For Cc1cccc(-c2n[nH]c(=S)n2/N=C/C=C/c2ccco2)c1, which “hERG current change (%, negative = inhibition) at 10uM” value is on record?
**A.** Its value is 2.05%.

**Q.** O=C(NCc1ccc(F)cc1)c1cnc(-c2ccccn2)nc1C(F)(F)F was tested. Which “hERG current change (%, negative = inhibition) at 10uM” value did it give?
**A.** Its value is -7.64%.

**Q.** CCOC(=O)N1CCN(C(=O)COC(=O)c2cccc(C)c2[N+](=O)[O-])CC1 was tested. Which “hERG current change (%, negative = inhibition) at 10uM” value did it give?
**A.** The value was -10.4%.

**Q.** With CCC(Cc1ccccc1)NC(=O)C1CCN(S(=O)(=O)c2c(C)noc2C)CC1 (centres unmarked) as the compound, how does the “hERG current change (%, negative = inhibition) at 10uM” value read?
**A.** Its value is 4.09%.

**Q.** For Cc1ccc(S(=O)(=O)N2CCN(CC(=O)N/N=C\c3ccc(Cl)c([N+](=O)[O-])c3)CC2)cc1, which “hERG current change (%, negative = inhibition) at 10uM” value is on record?
**A.** Its value is -30.8%.

**Q.** Which “hERG current change (%, negative = inhibition) at 10uM” value does the source give for CCc1nc2ccc(C(=O)N3CCN(c4ccc([N+](=O)[O-])cc4)CC3)cc2nc1CC here?
**A.** The value was -72.1%.

**Q.** With CC(=NCC1CCCO1)c1c(O)n(-c2ccccc2)c(=O)[nH]c1=O (centres unmarked) as the compound, how does the “hERG current change (%, negative = inhibition) at 10uM” value read?
**A.** The value was -0.431%.

**Q.** With CCOC(=O)/C(N=Nc1ccc2c(c1)OCO2)=C(\C)O as the compound, how does the “hERG current change (%, negative = inhibition) at 10uM” value read?
**A.** The value was -2.75%.

**Q.** How did the “hERG current change (%, negative = inhibition) at 10uM” value turn out when COc1cccc(C(=O)Nc2nnc(S(=O)(=O)N(C)Cc3ccccc3)s2)c1 was run?
**A.** The value was 17.4%.

**Q.** Which “hERG current change (%, negative = inhibition) at 10uM” value does the source give for COCn1c(=O)c2c(nc(SC3=NCCS3)n2Cc2ccccc2C)n(COC)c1=O here?
**A.** Its value is -0.787%.

**Q.** How did the “hERG current change (%, negative = inhibition) at 10uM” value turn out when CSc1ccccc1NC(=O)CN(C)CC(=O)Nc1c(F)cccc1F.O=C(O)C(=O)O was run?
**A.** The value was 23.4%.

**Q.** CC(=O)Nc1ccc(S(=O)(=O)N2CCN(Cc3cccc([N+](=O)[O-])c3)CC2)cc1.O=C(O)C(=O)O was tested. Which “hERG current change (%, negative = inhibition) at 10uM” value did it give?
**A.** Its value is -3.41%.

**Q.** With CC(C)=CCC/C(C)=C/C(=O)O as the compound, how does the “hERG current change (%, negative = inhibition) at 10uM” value read?
**A.** The value was 15.2%.

**Q.** With Cc1cc(N2C(=O)C3CC=CCC3C2=O)no1 (centres unmarked) as the compound, how does the “hERG current change (%, negative = inhibition) at 10uM” value read?
**A.** The value was -2.08%.

**Q.** Which “hERG current change (%, negative = inhibition) at 10uM” value does the source give for CCN(CC)C(=O)Oc1ccc2c(=O)c(-c3ccc(OC)cc3)c(C)oc2c1 here?
**A.** Its value is -35.8%.

**Q.** Which “hERG current change (%, negative = inhibition) at 10uM” value does the source give for COc1ccc(/C=C2/C(=N)N3C(=NC2=O)Sc2cc(S(C)(=O)=O)ccc23)cc1OC here?
**A.** Its value is 3.28%.

**Q.** With C[C@H](NC(=O)c1ccccc1Cl)C(=O)OCCOc1cccc(Cl)c1 as the compound, how does the “hERG current change (%, negative = inhibition) at 10uM” value read?
**A.** Its value is -7.09%.

**Q.** How did the “hERG current change (%, negative = inhibition) at 10uM” value turn out when COc1ccc(CCC(C)NCc2ccccc2OC)cc1 (centres unmarked) was run?
**A.** The value was -40.4%.

**Q.** With COc1ccccc1-n1cnnc1SCC(=O)NCC1CCCO1 (centres unmarked) as the compound, how does the “hERG current change (%, negative = inhibition) at 10uM” value read?
**A.** The value was 16.6%.

**Q.** For O=C1CSC(=Nc2ccc(O)cc2)N1, which “hERG current change (%, negative = inhibition) at 10uM” value is on record?
**A.** Its value is 19.7%.

**Q.** With Cc1cccc2c1-c1sc(C(=O)NCCCN3CCC(C)CC3)cc1CO2 as the compound, how does the “hERG current change (%, negative = inhibition) at 10uM” value read?
**A.** The value was -77.6%.

**Q.** For CCCN1CCC(NC(=O)Nc2ccccc2C(=O)OC)CC1, which “hERG current change (%, negative = inhibition) at 10uM” value is on record?
**A.** Its value is -9.26%.

**Q.** Which “hERG current change (%, negative = inhibition) at 10uM” value does the source give for CCc1cc(=O)oc2cc(C)c(CN3CCCCC3)c(O)c12 here?
**A.** Its value is -20.5%.

**Q.** With CCCSc1nnc(Cn2c(=O)sc3ccccc32)n1C as the compound, how does the “hERG current change (%, negative = inhibition) at 10uM” value read?
**A.** Its value is -1.25%.

**Q.** Which “hERG current change (%, negative = inhibition) at 10uM” value does the source give for COc1c(C)cc(Br)cc1C(=O)NCc1cccnc1 here?
**A.** The value was -17.9%.

**Q.** Which “hERG current change (%, negative = inhibition) at 10uM” value does the source give for CC12CCC3C(CCC4C/C(=N/O)CCC43C)C1CCC2O (centres unmarked) here?
**A.** Its value is -16.6%.

**Q.** O=C(CC(SCCO)c1ccc(F)cc1)c1ccco1 (centres unmarked) was tested. Which “hERG current change (%, negative = inhibition) at 10uM” value did it give?
**A.** Its value is 3.4%.

**Q.** How did the “hERG current change (%, negative = inhibition) at 10uM” value turn out when O=C(CCn1c(=O)c2ccccc2n(CC(=O)NCCC2=CCCCC2)c1=O)NCc1ccco1 was run?
**A.** The value was -3.77%.

**Q.** Which “hERG current change (%, negative = inhibition) at 10uM” value does the source give for CN(C)S(=O)(=O)c1cccc(N=c2scc(-c3ccc4c(c3)NC(=O)CO4)n2CC2CCCO2)c1 (centres unmarked) here?
**A.** Its value is -43.5%.

**Q.** Which “hERG current change (%, negative = inhibition) at 10uM” value does the source give for CC(=O)Cc1nsc(NC(=O)c2ccc(COc3ccccc3)o2)n1 here?
**A.** The value was -9.81%.

**Q.** With COc1ccccc1C(=O)NC(=S)Nc1cccc2cc(O)ccc12 as the compound, how does the “hERG current change (%, negative = inhibition) at 10uM” value read?
**A.** The value was 15.6%.

**Q.** Which “hERG current change (%, negative = inhibition) at 10uM” value does the source give for Cc1ccc(NC(=O)N2CCC(NC(=O)c3cccc(C)c3)CC2)cc1 here?
**A.** Its value is -4.37%.

**Q.** Cc1nnc(NC(=O)CSc2nc3c(c(=O)n2C)SC(C)C3)s1 (centres unmarked) was tested. Which “hERG current change (%, negative = inhibition) at 10uM” value did it give?
**A.** The value was 4.1%.

**Q.** Which “hERG current change (%, negative = inhibition) at 10uM” value does the source give for Cc1cc(C)c2c(N=NN3CCCCC3)[nH]nc2n1 here?
**A.** The value was -24.8%.

**Q.** Which “hERG current change (%, negative = inhibition) at 10uM” value does the source give for O=C(c1cnc2ccc3ccccc3c2c1)c1cc(F)ccc1O here?
**A.** The value was 13.6%.

**Q.** For O=C(NCCCn1ccnc1)c1ccc(NS(=O)(=O)c2cccc([N+](=O)[O-])c2)cc1, which “hERG current change (%, negative = inhibition) at 10uM” value is on record?
**A.** Its value is -4.07%.
